Data on 90 compounds can be found in paper PMC4336329 (PLoS ONE, 2015).

The whole screen tested about 310,000 compounds, of which about 14,000 (4.5%) showed an effect of 50% or more. The effect is printed as a negative number. The list shows a part of the results.
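Also: peak tail current of the secondary pulse compared with the same well before compound.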

In this test the target is human ether-à-go-go-related gene (hERG) potassium channel (human, UniProt Q12809). As to the kind of experiment: primary screen, population patch clamp on CHO cells stably expressing hERG.
human ether-à-go-go-related gene (hERG) potassium channel, sequence (Q12809 whole entry, looked up): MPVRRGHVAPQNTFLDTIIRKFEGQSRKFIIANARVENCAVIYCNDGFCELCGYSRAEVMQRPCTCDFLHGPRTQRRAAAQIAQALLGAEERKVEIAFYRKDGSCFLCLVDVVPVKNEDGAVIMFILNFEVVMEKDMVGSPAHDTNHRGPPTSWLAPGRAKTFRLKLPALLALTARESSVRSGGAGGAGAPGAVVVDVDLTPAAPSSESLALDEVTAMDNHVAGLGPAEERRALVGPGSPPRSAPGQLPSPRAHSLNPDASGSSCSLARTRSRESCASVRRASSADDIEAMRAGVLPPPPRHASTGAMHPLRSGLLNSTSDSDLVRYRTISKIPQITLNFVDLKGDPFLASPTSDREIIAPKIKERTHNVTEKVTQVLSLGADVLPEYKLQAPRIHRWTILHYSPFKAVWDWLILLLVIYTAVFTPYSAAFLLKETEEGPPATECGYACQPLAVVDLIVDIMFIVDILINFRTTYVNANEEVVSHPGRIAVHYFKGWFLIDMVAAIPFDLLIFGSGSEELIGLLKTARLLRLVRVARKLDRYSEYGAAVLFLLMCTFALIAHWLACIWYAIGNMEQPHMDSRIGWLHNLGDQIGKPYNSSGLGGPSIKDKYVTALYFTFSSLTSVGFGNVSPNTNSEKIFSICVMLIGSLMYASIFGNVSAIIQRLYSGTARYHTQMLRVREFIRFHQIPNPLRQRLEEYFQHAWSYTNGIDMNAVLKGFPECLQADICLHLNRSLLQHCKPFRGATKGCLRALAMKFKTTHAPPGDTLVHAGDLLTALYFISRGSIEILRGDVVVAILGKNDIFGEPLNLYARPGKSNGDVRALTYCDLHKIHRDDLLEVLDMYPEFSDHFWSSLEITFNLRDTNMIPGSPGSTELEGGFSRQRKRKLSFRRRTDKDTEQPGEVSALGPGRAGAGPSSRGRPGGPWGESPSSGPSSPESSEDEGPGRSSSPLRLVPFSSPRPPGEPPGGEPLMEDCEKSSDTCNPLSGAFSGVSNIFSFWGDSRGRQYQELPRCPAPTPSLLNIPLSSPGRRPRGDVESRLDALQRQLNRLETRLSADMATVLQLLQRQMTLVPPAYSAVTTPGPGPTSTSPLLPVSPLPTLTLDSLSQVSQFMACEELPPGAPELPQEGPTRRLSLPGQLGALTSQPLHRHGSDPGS
Take `CNC(=S)N(Cc1ccc2c(c1)OCO2)C1CC(=O)N(c2ccc(F)cc2)C1=O` (stereo not drawn): the “hERG current change (%, negative = inhibition) at 10uM” value is 1.94%.
Consider `COC(=O)c1nn(-c2cccc(C)c2)c2nnc(Cc3ccccc3)c(=O)n12`, for which the “hERG current change (%, negative = inhibition) at 10uM” value is -25.3%.
With `CC(=O)Nc1ccc(S(=O)(=O)N=S(C)C)cc1`, the “hERG current change (%, negative = inhibition) at 10uM” value came out at 2.56%.
Take `CCCCOc1ccc(C(=O)N(CC)CC(=O)NCc2cccs2)cc1`: the “hERG current change (%, negative = inhibition) at 10uM” value is -19.1%.
With `O=C(Cn1cc2c(n1)CCCCC2)NCc1ccccn1`, the “hERG current change (%, negative = inhibition) at 10uM” value is -2.69%.
Regarding `COc1ccccc1CN1CCSCC1`, the “hERG current change (%, negative = inhibition) at 10uM” value is 9.45%.
Then `COc1ccccc1NS(=O)(=O)c1cccc(C(=O)NCC(c2ccco2)N(C)C)c1` (stereo not drawn), with -16%; and `Nc1n[nH]c(S(=O)(=O)CCCc2ccccc2)n1`, with 4.57%; and `O=C(CCSCCc1ccccn1)Nc1ccc(Br)cn1`, with -14.1%.
Turning to `FC(F)(F)c1ccccc1/C=N/Nc1ccccn1`, the “hERG current change (%, negative = inhibition) at 10uM” value is 22.4%.
In the case of `Nc1nc(-c2cccs2)c(CC(=O)O)s1` it was 18%; in that of `CCCCNS(=O)(=O)c1ccc2nc(SCC(=O)N3CC(C)OC(C)C3)[nH]c2c1` (stereo not drawn), -4%; in that of `Cc1c(S(=O)(=O)Nc2ccc(Br)cc2)c(=O)n(C)c(=O)n1C`, 9.99%.
`O=C(CCCCCNC(=S)Nc1ccccc1)C[N+](=O)[O-]`: the “hERG current change (%, negative = inhibition) at 10uM” value was -5.2%.
Regarding `COc1ccc(Nc2nc(N3CCCC3)nc(N3CCOCC3)n2)cc1`, the “hERG current change (%, negative = inhibition) at 10uM” value was found to be 3.68%.
Turning to `O=C(Nc1ncc(Cc2ccc(SC(F)F)cc2)s1)c1ccc(OC(F)F)cc1`, the “hERG current change (%, negative = inhibition) at 10uM” value was 15.1%.
With `COC(=O)c1ccn(-c2nc(-c3ccco3)cc(C(F)(F)F)n2)n1`, the “hERG current change (%, negative = inhibition) at 10uM” value is reported as -16.6%.
For `COC(=O)c1c(NC(=O)CN2C(=O)c3ccccc3C2=O)sc(Cc2ccc3c(c2)OCO3)c1C`, the “hERG current change (%, negative = inhibition) at 10uM” value came to 5.02%.
As to `CCCNC(=O)c1cc2cc([N+](=O)[O-])ccc2s1`, the “hERG current change (%, negative = inhibition) at 10uM” value is -9.82%.
Take `COc1ccc(CC(=O)OC(C)CN2CCCCC2)cc1` (stereo not drawn): the “hERG current change (%, negative = inhibition) at 10uM” value turned out to be 4.23%.
As to `COc1ccc(C(=O)Nn2cc3c(c2-c2ccccc2)c(=O)n(C)c(=O)n3C)cc1`, the “hERG current change (%, negative = inhibition) at 10uM” value is 12.4%.
On to `CCOC(=O)c1cc2c(=O)n3ccccc3nc2n(CCCOC)c1=NC(=O)c1ccncc1`, for which the “hERG current change (%, negative = inhibition) at 10uM” value is given as -87.3%.
In the case of `CCCn1c(-c2ccc[nH]c2=O)nc2ccccc21` it was 15.6%; in that of `O=C(c1ccc(CNc2c(N3CCCC3)c(=O)c2=O)cc1)N1CCN(C2CCCCC2)CC1`, 15.7%; in that of `Cc1ccc(OCC(O)CN2C(=O)NC(C)(C)C2=O)c(C)c1` (stereo not drawn), 5.9%.
For the compound `Cc1ccc2c(c1)N(C(C)C(=O)N1CCC3(CC1)OCCO3)C(=O)CO2` (stereo not drawn), the “hERG current change (%, negative = inhibition) at 10uM” value came to 15.7%.
Then `O=C(NCCNS(=O)(=O)c1ccccc1)c1cc(OCC(F)(F)F)ccc1OCC(F)(F)F`, with 1.66%.
In the case of `Cc1ccc(CSCC(=O)NCCCN2CCOCC2)cc1` it was 11.4%; in that of `CC1=C(C(=O)N2CCOCC2)C(c2ccccc2F)C2=C(CC(C)(C)CC2=O)N1` (stereo not drawn), 0.00388%.
`COc1cc(C(=O)Nc2ccc(N(C)C)cc2)c([N+](=O)[O-])cc1OC`: the “hERG current change (%, negative = inhibition) at 10uM” value is on record as 11.6%.
`COc1ccc(NS(=O)(=O)c2ccc(N3CCCC3=O)cc2)cn1`: the “hERG current change (%, negative = inhibition) at 10uM” value turned out to be 28.1%.
In the case of `COc1cc(/C=N/N=C/c2c[nH]c(=O)c(C#N)c2Nc2ccccc2)ccc1O`, the “hERG current change (%, negative = inhibition) at 10uM” value is listed as -0.474%.
Take `Cc1ccc(NC(=O)Cc2nnc(SCC(=O)NC3CCCC3)n2C)cc1`: the “hERG current change (%, negative = inhibition) at 10uM” value is reported as 10.1%.
`Br.CC(C)CC1CC(=O)OC1(C)C(=O)CSc1nc2ccccc2s1` (stereo not drawn): the “hERG current change (%, negative = inhibition) at 10uM” value turned out to be 14.5%.
Then `CCCCCNC(=O)c1ccccc1SC`, with 8.32%.
For the compound `CCOc1ccc(CCNC(=O)c2sc3nc4n(c(=O)c3c2C)CCC4)cc1OCC`, the “hERG current change (%, negative = inhibition) at 10uM” value is -5.1%.
As for `Cc1ccc(N2CC(C(=O)Nc3ccncc3)CC2=O)cc1` (stereo not drawn), the “hERG current change (%, negative = inhibition) at 10uM” value is -11%.
For the compound `CCC[C@@H]1C[C@@]1(CCC)[C@@H](NP(=O)(c1ccccc1)c1ccccc1)c1ccc(C(=O)OC)cc1`, the “hERG current change (%, negative = inhibition) at 10uM” value came to 8.49%.
With `C=CCN1CCN(c2ccncc2S(=O)(=O)N2CCCCC2)CC1`, the “hERG current change (%, negative = inhibition) at 10uM” value is given as -7.29%.
In the case of `O=S1(=O)CCC(NC(=S)NC2CCS(=O)(=O)C2)C1` (stereo not drawn) it was 5.22%; in that of `Nc1nnc(CCS(=O)(=O)c2ccc(Cl)cc2)s1`, -4.86%.
For `Cc1ccc(C(=O)N/C(=C\c2ccco2)C(=O)N2CCCCC2)cc1`, the “hERG current change (%, negative = inhibition) at 10uM” value is given as -11.1%.
For the compound `O=C(c1ccc(N2CCCC2)c([N+](=O)[O-])c1)N1CCc2ccccc2C1`, the “hERG current change (%, negative = inhibition) at 10uM” value is recorded as -27.7%.
With `CC(C)(C)C(=O)Nc1ccc(S(=O)(=O)c2ccc(NC(=O)C(C)(C)C)cc2)cc1`, the “hERG current change (%, negative = inhibition) at 10uM” value is 18.6%.
Then `COc1ccc(S(=O)(=O)CCc2nc3ccccc3s2)cc1`, with 4.84%.
In the case of `COc1ccc(CCNC(=O)CN(c2cc(OC)ccc2OC)S(=O)(=O)c2ccccc2)cc1` it was 5.89%; in that of `CC(C)(C)c1ccc(C(=O)NCCOc2ccccc2F)cc1`, 7.61%.
In the case of `CCCCN1C(=O)C(=O)N(CC(=O)Nc2sc(C)c(C)c2C(=O)OC)C1=O`, the “hERG current change (%, negative = inhibition) at 10uM” value amounted to 8.28%.
In the case of `Cc1ccc(NC(=O)NCc2cccn2C)cc1C` it was 17.1%; in that of `O=S1(=O)CCC(NC(=S)N2CCCCCC2)C1` (stereo not drawn), 4.39%; in that of `CCN1CCN(C(=O)/C=C/c2ccc(OC)c(OC)c2)CC1`, 19.7%.
`Cc1cnc(NC(=O)c2ccc3c(c2)OCCO3)s1`: the “hERG current change (%, negative = inhibition) at 10uM” value turned out to be 3.14%.
In the case of `Cc1cc(C)nc(Nc2cccc(C(F)(F)F)c2)n1.Cl`, the “hERG current change (%, negative = inhibition) at 10uM” value is reported as 10.8%.
With `CCCCCC(=O)NCc1c(C(F)(F)F)nn(C)c1N1CCOCC1`, the “hERG current change (%, negative = inhibition) at 10uM” value was 12.8%.
`CCC/S(CC1CC1(Cl)Cl)=N\S(=O)(=O)c1ccc(C)cc1` (stereo not drawn): the “hERG current change (%, negative = inhibition) at 10uM” value was -6.62%.
With `COc1ccc(C2C=C(c3ccccc3)Nc3nc(CCCO)nn32)cc1` (stereo not drawn), the “hERG current change (%, negative = inhibition) at 10uM” value was -51.8%.
On to `Cc1cc(C)n2nc(C(=O)NCCc3ccccc3)nc2n1`, for which the “hERG current change (%, negative = inhibition) at 10uM” value came out at 1.19%.
For the compound `COC(=O)c1cc(S(=O)(=O)N2CCCC2=O)c(Cl)cc1Cl`, the “hERG current change (%, negative = inhibition) at 10uM” value is reported as 13.1%.
Consider `CC1(C)Cc2cccc(Oc3ccc(S(=O)(=O)N4CCCC4)cn3)c2O1`, for which the “hERG current change (%, negative = inhibition) at 10uM” value is recorded as -46.5%.
Turning to `COc1cccc(C(=O)OCC(=O)c2ccc(Br)s2)c1OC`, the “hERG current change (%, negative = inhibition) at 10uM” value is given as -0.224%.
As for `N#Cc1cccc(NC(=O)COC(=O)CCc2nc3ccccc3c(=O)[nH]2)c1`, the “hERG current change (%, negative = inhibition) at 10uM” value is on record as 9.14%.
For `CCOC(=O)C(C(=O)OCC)N(C#N)c1nc(OC)nc(N(C)C)n1`, the “hERG current change (%, negative = inhibition) at 10uM” value is reported as -4.52%.
Take `Cc1ccn2c(=O)nc(SCc3cccc(C(F)(F)F)c3)nc2c1`: the “hERG current change (%, negative = inhibition) at 10uM” value is given as -51.5%.
With `CCOc1ccc(S(=O)(=O)Nc2nc3cc(OC)ccc3s2)cc1`, the “hERG current change (%, negative = inhibition) at 10uM” value is reported as 3.87%.
Turning to `C#CCSc1nnc(-c2cc3c(C(F)(F)F)nn(C)c3s2)n1C`, the “hERG current change (%, negative = inhibition) at 10uM” value is 5.79%.
Then `Fc1ccccc1NC(=S)N1CCOCC1`, with 16.6%; and `CC(C)(CNC(=O)c1ccccc1NS(C)(=O)=O)N1CCCCC1`, with -7.99%; and `COC(=O)c1cc(C(=O)NNC(=O)c2ccc3c(c2)OCO3)cc([N+](=O)[O-])c1`, with -7.98%.
Then `Cc1ccc(C(=O)OCC(=O)c2ccc(CC(=O)N3CCOCC3)s2)cc1C`, with -31.2%; and `O=C(NCCc1ccccc1)c1cccc([N+](=O)[O-])c1`, with -0.253%; and `CCC/C=C(\CCC)C(NC(=O)c1ccc(C(F)(F)F)cc1)c1ccccc1` (stereo not drawn), with 16.7%.
In the case of `Cc1cccc(NC(=O)c2nc(-c3ccccc3)n(-c3ccccc3)n2)c1C` it was -21.8%.
`COc1cccc(-c2ncc3ccccc3c2COC(=O)c2ccco2)c1`: the “hERG current change (%, negative = inhibition) at 10uM” value turned out to be 15%.
Then `O=C(NCc1ccccc1Cl)c1ccc(S(=O)(=O)Nc2cccc(C(F)(F)F)c2)cc1`, with 3.51%.
In the case of `Cc1ccc(OC(C)C(=O)Nc2ccccc2C(=O)N2CCN(C)CC2)cc1` (stereo not drawn) it was -5.11%.
Then `Cc1ccc(CS(=O)(=O)CCC(=O)NCCCOC(C)C)cc1`, with 5.17%; and `NS(=O)(=O)c1ccc(NC(=O)CSc2nc3ccccc3[nH]2)cc1`, with -10.2%.
For `COc1ccc(S(=O)(=O)NCc2ccccn2)cc1Cl`, the “hERG current change (%, negative = inhibition) at 10uM” value is -6.63%.
In the case of `CCO/C(C)=C1\C(=O)N(CC)c2ccccc21` it was -1.64%; in that of `CCC(C(=O)NC1CCCC1)N(C(=O)Cn1nnc(-c2ccc(OC)c(OC)c2)n1)C1CCCCC1` (stereo not drawn), -19.8%; in that of `CCOC(=O)N1CCC(NC(=O)c2cccs2)CC1`, 6.2%.
Consider `COc1ccc(NC(=O)CCNS(=O)(=O)c2ccc3c(c2)CCC(=O)N3)cc1`, for which the “hERG current change (%, negative = inhibition) at 10uM” value is -2.85%.
`COCCCN(C(=O)c1ccccc1F)c1nc(-c2ccc(OC)cc2)cs1`: the “hERG current change (%, negative = inhibition) at 10uM” value turned out to be 8.7%.
`CCC1(CC)C(=O)N=C2c3ccccc3C(=O)N21`: the “hERG current change (%, negative = inhibition) at 10uM” value was -1.48%.
`Cc1ccccc1N1CCN(S(=O)(=O)c2nnc(NC(=O)CC(C)C)s2)CC1`: the “hERG current change (%, negative = inhibition) at 10uM” value stood at 24.3%.
In the case of `CCCOc1ccc(N2C(=O)CC(SC(=NC)Nc3ccc(F)cc3)C2=O)cc1` (stereo not drawn) it was 16.6%.
Turning to `C/C(=N\Nc1ccccc1[N+](=O)[O-])c1ccccc1O`, the “hERG current change (%, negative = inhibition) at 10uM” value was 21.6%.
Regarding `CCc1nnc(NC(=O)C2CC(=O)N(Cc3ccco3)C2)s1` (stereo not drawn), the “hERG current change (%, negative = inhibition) at 10uM” value is reported as 8.68%.
In the case of `CCN(CC(=O)Nc1ccc(NC(C)=O)cc1)C(=O)c1cc2c(s1)CCCCC2`, the “hERG current change (%, negative = inhibition) at 10uM” value is on record as -2.2%.
As to `CC1(C)CC(=O)C2=C(C1)OC(N)=C(C#N)C21CCN(Cc2ccccc2)CC1`, the “hERG current change (%, negative = inhibition) at 10uM” value is 1.93%.
